Data from PubChem BioAssay AID1671194 (National Center for Advancing Translational Sciences (NCATS), 2021).
Screen size: about 140,000 compounds; about 240 (0.17%) were called active. This list was built around the results that the source calls inconclusive (neither active nor inactive); the mix of calls is not that of the screen. Calls come from the whole dose curve; as a rule, active = well fitted inhibition curve with a large enough effect; inconclusive = small, poorly fitted or top-dose-only effect; inactive = no such curve, though single readings can be large or run the other way. Potencies of inconclusive entries are doubtful fits and often do not repeat.

Assay: Primary qHTS assay for inhibitors of alpha-synuclein gene (SNCA) expression; note: nearly all actives have a fitted effect of over 45% in size;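 for activity change, negative = inhibition: plate controls were DMSO cells for no effect and cell-free wells for full effect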
Conditions: HEK-293 SNCA-luciferase knock-in, luminescence, 24 h; activity change, negative = inhibition: at 57.2 µM (top of the series) unless noted
Potency is the fitted concentration of half-maximal effect; tags give direction and shape of the fitted curve.

SMILES | activity change, negative = inhibition | Potency
CC(C)CNC(=O)c1cc(-c2ccsc2)nc2c1cnn2C | inactive: 7.52% [at 87.6 µM] | –
COc1ccc(CNC(=O)c2ccc(Cn3ccn4nc5c(c4c3=O)CCCC5)cc2)cc1 | – | inconclusive: 8.91 µM [inhibitor, partial curve, poor fit]
COc1ccc(NC(=O)c2nc3sccn3c2-c2ccc(C(F)(F)F)cc2)cc1 | inactive: -9.31% | –
CC(C)C(=O)N1CCC2(CCC(=O)N(Cc3ccccc3)CC2)CC1 | – | inconclusive: 39.8 µM [inhibitor, single point]
CCC(=O)Nc1ccccc1-c1nc2ccccc2n(C(CC)C(=O)Nc2cccc(Cl)c2)c1=O (configuration not stated) | – | inconclusive: 0.178 µM [inhibitor, single point]
Cc1ccc(C)c(N2CCN(c3nc4ccccc4c(=O)n3-c3ccccc3)CC2)c1 | – | active: 2.51 µM
O=C(NCCCN1CCCC1=O)c1ccc(-c2ccc(N3CCSCC3)nc2)cc1 | inactive: 38.5% | –
Cc1cc(C)c(S(=O)(=O)NCCc2csc3nc(-c4ccc(Cl)cc4)nn23)c(C)c1 | – | inconclusive: 25.1 µM [inhibitor, single point]
Cc1ccc(CNC(=O)c2ccc(N3CC4CC(C3)[C@H]3CCCC(=O)N3C4)nc2)o1 (some centres not stated) | – | inconclusive: 6.31 µM [inhibitor, full curve, poor fit]
CCC(=O)N(C1CCOCC1)C1CCN(S(=O)(=O)c2ccc(CC)cc2)CC1 | – | inconclusive: 28.2 µM [inhibitor, single point]
CN(C)Cc1cc(C[C@@H]2C[C@H](NC(=O)C3CCCC3)C2(C)C)no1 | – | inconclusive: 4.47 µM [inhibitor, full curve, poor fit]
CCCNC(=O)N1CCCCCC1CN1CCC(C)CC1 (configuration not stated) | inactive: -6.17% | –
CCN1CC(CN(C)Cc2cn(-c3ccccc3C)nc2-c2ccc(OC)c(F)c2)CC1=O (configuration not stated) | inactive: -15% | –
O=c1c(-c2cc(F)cc(F)c2)nc2cnc(N3CCNCC3)nc2n1CCc1ccccc1 | – | inconclusive: 10 µM [inhibitor, partial curve, poor fit]
O=C(NCC1CN(CC2CC2)CC12CN(c1ccccc1)C2)Nc1ccccc1 (configuration not stated) | – | inconclusive: 3.98 µM [inhibitor, full curve, poor fit]
Cc1ccccc1S(=O)(=O)N1CCCC(CCC(=O)Nc2ccc(F)cc2F)C1 (configuration not stated) | – | inconclusive: 6.31 µM [inhibitor, single point]
CC1(C)C[C@H](NC(=O)c2ccccc2)[C@@]2(CCC(=O)NCc3ccco3)CC[C@](C)(O)C[C@@H]12 | inactive: 1.52% | –
CCN(CC)C(=O)C1Cn2cccc2C(=O)N1C (configuration not stated) | – | inconclusive: 39.8 µM [inhibitor, single point]
COc1ccc(S(=O)(=O)N[C@H](C)c2onc(-c3ccc(F)cc3)c2C(=O)O)cc1 | – | inconclusive: 3.16 µM [inhibitor, single point]
O[C@@H]1CN(Cc2ccc(-n3cccn3)cc2)CC[C@H]1c1ccc(F)cc1 | inactive: 3.03% | –
Cc1ccc(-n2nc3c(=O)n(CCCC(=O)NC(C)c4ccccc4)nc(C)c3c2C)cc1 (configuration not stated) | – | active: 28.2 µM
COc1ccc(OC)c(NC(=O)CCn2ccn3nc4c(c3c2=O)CCCC4)c1 | – | inconclusive: 22.4 µM [inhibitor, single point]
O=C(Cc1cccs1)N1CC(c2noc(C3CCCN3CC3CC3)n2)C1 (configuration not stated) | – | inconclusive: 39.8 µM [inhibitor, single point]

SMILES | activity change, negative = inhibition | Potency
CCSc1nn(CC(=O)Nc2cccc(Cl)c2)c(N)c1S(=O)(=O)c1ccc(OC)cc1 | – | inconclusive: 35.5 µM [inhibitor, single point]
COc1cccc(C(O)CNC(=O)C2CCN(C(=O)C3CCC3)CC2)c1 (configuration not stated) | inactive: 5.13% | –
CCCN(C)c1nccnc1OC1CCN(C(=O)CC)C1 (configuration not stated) | inactive: 2.46% | –
COc1ccccc1NS(=O)(=O)c1cc2c(cc1Cl)NC(=O)CO2 | – | inconclusive: 11.2 µM [inhibitor, partial curve, poor fit]
c1ccc(C2CN3CCSC3=N2)cc1 (configuration not stated) | – | inconclusive: 3.16 µM [inhibitor, single point]
O=C1CN(C(=O)Nc2ccccc2C(F)(F)F)C(c2ccccc2)c2c(sc3c2CCCC3)N1 (configuration not stated) | – | inconclusive: 39.8 µM [inhibitor, single point]
CCc1cccc(OCC(=O)c2ccc3c(c2)N(CC(=O)NCCCOC)C(=O)CO3)c1 | – | inconclusive: 3.55 µM [inhibitor, single point]
CCOC(=O)c1c(C)n(-c2ccccc2)c2ccc(OC(=O)c3ccccc3NC(=O)C(C)(C)C)cc12 | – | active: 12.6 µM
COc1cccc(-c2noc(CC3CCN(C(=O)c4ccc(OC)c(OC)c4)CC3)n2)c1 | – | inconclusive: 3.55 µM [inhibitor, full curve, poor fit]
COc1ccc(-c2nsc(NC(=O)c3oc4cc(C)c(C)cc4c3C)n2)cc1 | – | inconclusive: 39.8 µM [inhibitor, single point]
CCN1CCN(c2cc(C)c3cc(NC(=O)c4cc(Cl)ccc4OC)ccc3n2)CC1 | – | inconclusive: 39.8 µM [inhibitor, single point]
COc1ccc(C2=NC(C)(C)N(CC(=O)Nc3ccc(F)c(F)c3)C2=O)cc1 | – | inconclusive: 11.2 µM [inhibitor, partial curve]
COCC(=O)N1CCC(C(=O)N2CCC(c3ccccc3)CC2)CC1 | inactive: 46.5% [at 87.6 µM] | –
O=c1cnc2cncnc2n1Cc1ccccc1Cl | – | inconclusive: 4.47 µM [inhibitor, full curve]
COc1ccc(-c2nc(C3CC3)nc3c2CCN(Cc2ccc(NC(C)=O)cc2)CC3)cc1 | – | inconclusive: 2.82 µM [inhibitor, full curve, poor fit]
COc1cccc(NC(=O)CN2C(=O)NC3(CCCCC3)C2=O)c1 | – | inconclusive: 2 µM [inhibitor, partial curve, poor fit]
Cc1ccsc1-c1[nH]nc2ncc(-c3cn[nH]c3)nc12 | – | inconclusive: 35.5 µM [inhibitor, single point]
Cc1cn2nc(C(=O)NCc3cccc(C(F)(F)F)c3)cc2c(N2CCSCC2)n1 | inactive: 2.89% | –
CCOc1ccc(CN2CCN(c3ncnc4sc5c(c34)CC(C)CC5)CC2)cc1 (configuration not stated) | inactive: -8.31% | –
Cc1ccc(CN2CCc3nc(C(=O)Nc4nc(C)cs4)oc3CC2)cc1 | – | inconclusive: 56.2 µM [inhibitor, single point]
COc1ccc(OC)c(CCNC(=O)c2c(C)oc3ncn(C)c(=O)c23)c1 | – | inconclusive: 3.55 µM [inhibitor, full curve, poor fit]
COc1cccc(-c2cc3c(ccn3CC3CCN(C)CC3)c(N3CCOCC3)n2)c1 | – | inconclusive: 22.4 µM [inhibitor, single point]
CC(C)(CN)N1CCCC1 | – | inconclusive: 10 µM [inhibitor, single point]

SMILES | activity change, negative = inhibition | Potency
CCc1nc2c(c(-c3ccc(Cl)cc3)n1)CCN([S+](=O)([O-])c1cccc(OC)c1)CC2 | – | inconclusive: 8.91 µM [inhibitor, single point]
CCn1nccc1C(=O)NCCC1CCN(C(=O)Nc2ccccc2F)CC1 | inactive: -4.1% | –
CC(CC(=O)NCc1ccc(Cl)cc1)CC1=NS(=O)(=O)c2ccccc2N1 (configuration not stated) | – | inconclusive: 7.08 µM [inhibitor, single point]
COc1cc(CNC(C)C)ccc1OCC(O)CN1CCSCC1 (configuration not stated) | inactive: 1.1% | –
COc1cccc(NC(=O)CCC2CCN(C(=O)C(C)n3cncn3)CC2)c1 (configuration not stated) | – | inconclusive: 7.94 µM [inhibitor, full curve, poor fit]
Cc1ccc(-c2cc(N)n3nc(-c4ccc(C)cc4)cc3n2)cc1 | inactive: 50% | –
COc1cccc(CN2CCc3c(cc(C(=O)N4CCOCC4)n3C)C2)c1 | inactive: 3.95% | –
CC(CCc1ccccc1)NC(=O)C1CN(C2CCCCC2)C(=O)N1 (configuration not stated) | – | inconclusive: 15.8 µM [inhibitor, single point]
COc1ccccc1-c1cc2c(ccn2C)c(C(=O)NCCN2CCNC2=O)n1 | inactive: 18.3% [at 87.6 µM] | –
CCc1ccc(NC(=O)N2CCc3c(c4ccccc4n3C)C2)cc1 | inactive: 29.9% | –
Cc1cc(C)cc(NC(=O)CSc2nccn2-c2ccccc2)c1 | inactive: -6.42% | –
Cc1cccc2nc(-c3cccnc3)c(Nc3ccc(C(C)C)cc3)n12 | – | inconclusive: 11.2 µM [inhibitor, partial curve]
COc1ccc(CCC(=O)N2CCCC(c3nc(-c4ccccc4)no3)CCNC(=O)CC2)cc1 (configuration not stated) | inactive: -4.54% | –
N#Cc1ccc(CN2CC[C@@]3(CCCN(C(=O)c4cccc(F)c4)C3)C2)cc1 | – | inconclusive: 8.91 µM [inhibitor, partial curve]
Cc1ccsc1CN1CC(Oc2ccccc2C(=O)NCc2ccccc2)C1 | – | inconclusive: 39.8 µM [inhibitor, single point]
CC(C)c1ccc(C(=O)N2CCC(OC3CCN(C)CC3)CC2)cc1 | – | inconclusive: 39.8 µM [inhibitor, partial curve, poor fit]
COc1cccc(CNC(=O)CCC2CCN(S(=O)(=O)c3ccccc3)CC2)c1 | inactive: 11.3% | –
Cc1ccc(NC(=O)Nc2nnc(N(C)Cc3ccccc3)s2)cc1 | – | inconclusive: 0.178 µM [inhibitor, partial curve, poor fit]
O=C(NCc1nnc2c(-c3nc(C4CC4)no3)cccn12)c1nccc2ccccc12 | inactive: 6.73% | –
O=C(Nc1ccc(Oc2ccccc2)cc1)N[C@H]1CO[C@H]2[C@@H]1OC[C@H]2OC(=O)Nc1cccc2ccccc12 | – | inconclusive: 28.2 µM [inhibitor, single point]
COc1cc(Cl)c(C)cc1NC(=O)Cn1ccn2nc(-c3ccc(F)cc3)c(CO)c2c1=O | – | inconclusive: 25.1 µM [inhibitor, single point]
